# From the RNAGym collection of RNA variant scans (doi:10.7554/elife.90254)
# The source gives no read counts; variants with many changes may rest on few reads.
# B1: LINE1-mini (parent)
# chain: GGCAGAGCUCAACACAGCGUGGCAAAGUGGCUGUGGCUAGACUGCC
# Variants of: B1
# Test: self-cleavage, relative activity (ratio to wild type); higher = more cleavage; in vitro, sequencing; the parent is a self-cleaving ribozyme
row,Variant,self-cleavage
1,GGCAGAGUUCAACUCAGCGUGGCAAAGUGGCUGUGGCUAGACGGCC,0.06
2,GGCAGAGUUCAACCCAGCGUGGCAAAGUGGCUGUGGCUAGGCUGCC,0.1
3,GGCAGAGGUCAACACAGCGGGGCAAAGUGGCGGUGGCUAGACUGCA,0.03
4,GGCAGAGGUCAACACAGCGUGGCAAAGUGGCUGCGGCUAGACUCCC,0.01
5,GGCAGAGGUCAACACAGCGGGGAAAAGUGGCUGUGGCUAGACUGCC,0.04
6,GGCAGAGUUCAUCACAGCGUGGCAAAGUGGCUGUGGCUAGAGUGCC,0.1
7,GGCAGAGUUCUACACAGGGUGGCAAAGUGGCUGUGGCUAGACUGCC,0.04
8,GGCAGAGGUCAACACAGCGUGGCAAAGUGGCUGAGGCUAGACCGCC,0.02
9,GGCAGAGUUCAGGACGGCGUGGCAAAGUGGCUGUGGUUAGACUGUC,0.14
10,GGCAGAGUUCAACCCAGCGUGGCAAGUUGGCUGUUGCUAGACUGCG,0.02
11,GGCAGAGGACAACACAGCGUGGCAAAGUGGCUGGGGCUAGACUGCC,0.21
12,GGCAGAGUUCAUCACAGCGUGGCAAAGUGGCUGUGUCUAGACUGCC,0.35
13,GGCAGAGGACAACACAGCGUGACAAAGUGGCUGUGGCUAGACUGCC,0.03
14,GGCAGAGUUCAACGCAGCGUGGCAAAGUGGCUGUGACUAGACUGCU,0.02
15,GGCAGAGUUCCACACGGCGUGGCAAAGUGGCUGUUGCUAGACUGCC,0
16,GGCAGAGUUCAACUCAGCGUUGCAAAGUGGCUGUGGCUAGAAUGCC,0.12
17,GGCAGAGUUCUUCAAAGCGUGGAGAAGUGGCUGUGGCUAGACUGCC,0.03
18,GGCAGAGUUCUACACUCCGUGGCCAAGUGGCUGUGGCUAGACUGCC,0.02
19,GGCAGAGGUCAACACAGCGUGGCAAAGCGGCUGUGGCUAGACUGCU,0.14
20,GGCAGAGGGGAACACAGCGUGGCAAAGUGGCUGUGGCUAGACUGCC,0.03
21,GGCAGAGUUCAACACGGCGUGGCAAAGUGGCUGGGGCUAGACUGCC,0.01
22,GGCAGAGGCCAACACAGCGCCGCAAAGUGGCUGUGGCGAGACUACC,0
23,GGCAGAGUUCAGCACAGCGUGGCAAAGUGGCUGUGGUUAGGCUGCU,0.01

row,Variant,self-cleavage
1,GGCAGAGGUCAACACAGCGUGGCAAAGUGGCAUAGGCUAGUCUGCC,0.09
2,GGCAGAGUUCAACCCAGCGUGGCAUAGUGGCUGUGGCUAGACUGCC,0.22
3,GGCAGAGUUCCACACUGCGUGGCAAAGUGGCUGUGGCGAGACUGCC,0.01
4,GGCAGAGUUCAGCACAGCGUGACAAAGUGGCUGUGGCUAGACUGUC,0.02
5,GGCAGAGGGCAACACAGCGUGGCAAAAUGGCUGUGGCUAGACUGCC,0.12
6,GGCAGAGUUCAACGCAGCGUGGCAAACCGGCGGUGGCUAGACUGUC,0.02
7,GGCAGAGUUCUGCACAGCGUGGCAAAGUCGCUGUGGUUAGACUGCC,0.01
8,GGCAGAGUUCCACAUAGCCUGGCAAAGUGGCUGUGGCUAGACUGCC,0.01
9,GGCAGAGGCCAACACAGCGUGGCAAAGUGGCUGUGGCUAGACAGCC,0.03
10,GGCAGAGUUCGACACAGCGUGGCGAGGUGGCUGUGGCUAGACUGCC,0.01
11,GGCAGAGUUCAACACGGCGUGGCAAUGUGUCUGUGGCUAGACUGCC,0.07
12,GGCAGAGGCCAACACAGCGUGGCAAAGUGGCUGUUGCUAGACUGCC,0.02
13,GGCAGAGUUCAACACCAUGUGGCAAAGUGGCUGUGGCUAGACUGCC,0.01
14,GGCAGAGUUCUACACAGCGUGGCAGAGUGGAUGUGGCUAGACUGCC,0.03
15,GGCAGAGGGCAACACAGCGUGGCAAAGUUGCUGUGGCUAGACUGCC,0.03
16,GGCAGAGGUCAACACAGCGCGGCAAAGUAGCUGUGGCUAGACUGCC,0.07
17,GGCAGAGUUCAUCACAGCGUGGUAAAGUGGCUUUGGCAAGACUGCC,0.04
18,GGCAGAGGUCAACACAGCGCGGCAAAGUGGCUGUGGCUAAACUGCC,0.05
19,GGCAGAGUUCAACGCAGCGAGGCAAAGGGGCUGAGGCUAGUCUGCC,0.08
20,GGCAGAGGACAACACAGCGUGGCAAAAUGGCCGUGGCUAGACUGCC,0.07
21,GGCAGAGGACAACACAGCCUGGCAAAGUAGCUGUGGCUGGACAGCC,0.09
22,GGCAGAGUUCCACACAGCGUGGCAUAGUGGCUGUGGCUAGACUGCC,0.01
23,GGCAGAGUUCGACACAGCGGGGCAAAUUGGCUGUGGCUAGACUCCC,0.02

row,Variant,self-cleavage
1,GGCAGAGGACAACACAGCGUGCCAAAGUGGCUUUGGAUAGACUGCC,0.12
2,GGCAGAGUUCGACACAUCGUGGCAAAGUGGCUGUUGCUAGACUGCC,0.03
3,GGCAGAGUUCAGCACAGCGGGGCAAAGUGGCUGUGGCUAGACUGCC,0.08
4,GGCAGAGGGCAAUACAGCGUGGCAAAGUGGCUGUGGCUAGACUGCC,0.04
5,GGCAGAGGUCAACACAGCGUGGCAAAGAGGCUCUGGCUAGACUGCU,0.08
6,GGCAGAGGUCAACACAGCGUGGCAAAGUGGCAGUGGCUAGACUGCA,0.06
7,GGCAGAGGUCAACACAGCGUGGCAAAGUGGCUGGGGGUCGACUGCC,0
8,GGCAGAGUUCCACACAGUCUGGCAAAGUGGCUGUGGCUAGACUGCC,0
9,GGCAGAGUUCUACACAGCGUGGCCAAGUGGCUGUGGCUAGGCUGCC,0.01
10,GGCAGAGUUCUACACAGCGUGGCAUAGUGUCUGUGGCUAGACUGCC,0.01
11,GGCAGAGGACAACACAGCGUGGCAAAGUGGCUGUGGCUAUACUGCC,0.06
12,GGCAGAGGGCAACACAGCGUGGCAGAGUGGCUGUGGCUAGACUGCC,0.01
13,GGCAGAGGACAACACAGCGUUGCAAAGAGGCUGUGGCACGACUGCC,0.17
14,GGCAGAGGUCAACACAGCGUGGCAAAGUGGCAGUGGCUAUACUGCC,0.04
15,GGCAGAGUUCUACACAGCGUCGCAAAGUGGCUGUCGCUAUACUGCC,0
16,GGCAGAGUUCCUCACAGCGUGGCAAAGUGGCUGUGGCUAGACUGCC,0.01
17,GGCAGAGGUCAACACAGCGUGGCAAAGAGGCUGUGGCUAGACCGCC,0.02
18,GGCAGAGUUCAACGCAGCGUGGCAACGUGGCUGUGGCUAGAAUGCC,0.07
19,GGCAGAGUUCACCACAGCGUGGCAAAGUGGCUGAGUCUAAACUGCC,0.01
20,GGCAGAGGCCAACACAGCGUUGCCAAGUGGCUGUGGCUUGACUGCC,0.01
21,GGCAGAGGGCAACUCAGCAUGCCAUAGUUGCUGAGGCUAGACUGUC,0
22,GGCAGAGUUCCACACAGCGUGGAAAAGUAGCUGUGACUAGACUGCC,0.01
23,GGCAGAGUUCCACACAGCGUGGCAAAGUGGCUGUUGCUAGACUGCC,0

row,Variant,self-cleavage
1,GGCAGAGUUCAUCGCAGCGUGGUAAAGUGACUGUGGCUAGACUGCC,0.01
2,GGCAGAGGACAACACAGCGUGGCAAAGCGGCUGAGGCUAGACUGCC,0.1
3,GGCAGAGUUCGACGCAGCGUGGCAAAGAGGCUGUGGCUGGACUGCC,0.01
4,GGCAGAGGUCAACACAGCGUGGCAAAGUGGCCAUGGCUAAACUGCC,0.09
5,GGCAGAGUUCACCACAGUGUGGCAAAGUGGCUGUGGCUAGACUGCC,0.01
6,GGCAGAGUUCAACACGGCGGGGCAAAGUUGCUGGGGCUAGACUGCC,0.02
7,GGCAGAGGGCAACACAGCGUUGCAAAGUGGCUGUGGCCAGACUGCC,0.02
8,GGCAGAGUUCCACACAGCGUGGCAAAAUGGCGGUGGCUAGACUCCC,0.02
9,GGCAGAGUUCAACACGGCGUGGCACUGUGGCUGUGGCUAGACUGCC,0.01
10,GGCAGAGUUCGACACAGCGUGGCAAAGUAGCUGUGGUUAGACUGCA,0.02
11,GGCAGAGUUCAUCAAAGCGUGGCAAAUUGGCUGUGGCUCGAUUGCC,0.19
12,GGCAGAGUUCAACCCAGCCUGGCAAAGUGGCUGUGGCUAGACUGUU,0.05
13,GGCAGAGGUCAACACAGCGAGGCAAAGUGGCUGUGAGUAGACUACC,0
14,GGCAGAGGUCAACACAGCGCGGCAAAGUGGCAGUGGCUAGACUGCC,0.1
15,GGCAGAGGUCAACACAGCGCGGCAAAGUGGCCGUGGCUAGACUGCC,0.03
16,GGCAGAGUUCACCACAGCGAGGCAAAGUGGCUGUGGUUUGAAUGCC,0
17,GGCAGAGUUCAUCACAGCGUGGCAAAGUGGCUGUAUCUUGACUGCC,0.1
18,GGCAGAGGGCAACACAGCGUUGCAAAGUGGCUAGGGCUGAAUUGCC,0
19,GGCAGAGUUCAACUCAGCGUGGCAAAGUGUCGGUGGCUAGACUGCC,0.14
20,GGCAGAGUUCAUCACAGCGUGGCAACGUGGCUGUGGCUAGACUGCC,0.18
21,GGCAGAGUUCAUCACAGCGUGGUAAAGUGGCUGUGGCUAGACUUCC,0.12
22,GGCAGAGGUCAACACAGCGUGGCAAAGAGGCUGUGCCUAGACUGCC,0.05
23,GGCAGAGUUCCAAACAGAGUAGCAAAGUGGCUGUGGCUAUACUGCC,0.02

row,Variant,self-cleavage
1,GGCAGAGUUCAACCCAGCGUGGCAAAGUGGCUGUGGCUAGACCUCC,0.03
2,GGCAGAGUUCAACACGGCGUAUCAAAGUGGCGGUGGCGAGACUGCC,0.02
3,GGCAGAGUUCAUCACAUCGUGGCAAAGUGGCUGUGGAUAGACCGCC,0.02
4,GGCAGAGUUCAACACGGCGUGGCAAAGUUGCUGUGGCUCGACUGCC,0.04
5,GGCAGAGUUCAACACCCCCUGGCAAAGUGGCUUUGGCUAGACUGCC,0.03
6,GGCAGAGUUCAACACCGCGUGGCAAAGAGGUUGUGGCUAGACUGCC,0.06
7,GGCAGAGGUCAACACAGCGUGGCAAAGUGGCAGUGGGUAGACUGCC,0
8,GGCAGAGGCCAACACAGCGUGGCAAAGUGGCUGUGGUUAUACUGCC,0.01
9,GGCAGAGGCCAACACAGCGUGGCACAGUGGCUGUGGAUAGACUGUC,0.07
10,GGCAGAGUUCAGCGCAGCGCGGCAAAGUGGCUGUGGUUAGACUGCC,0.05
11,GGCAGAGUUCUACACAGCGUGGCUAAGUGGCUGUGGCUAGACUGCC,0.06
12,GGCAGAGGUCAACACAGCGAGGCGAAGUGGCUGUGGCUAGACUGCC,0.04
13,GGCAGAGUUCAACCCAGCGUGGCAAAGUGGCUGUGUCUAAGCUGCC,0.23
14,GGCAGAGUUCAGCUCAGCGUGGCAAAGUGACUGUUGCUAGACUGCC,0.02
15,GGCAGAGUUCGACACAGCGUGGCAAAGUGGCUGUGGCUAGACUGCA,0.02
16,GGCAGAGUUCCACCCAUCGUGGCAAAGUGGCUGUGGCUAGACUGCC,0.03
17,GGCAGAGUUCACCACAGCGUGCUAAAGUGGCUGUGGCUAGACUGCC,0.03
18,GGCAGAGUUCUACACAGCGUGACAAAGUGGCUGUGGCUAGACUGCC,0.01
19,GGCAGAGGUCAACACAGCGCGGCAAAGUGGUUGUGGAUAGACUGCC,0.07
20,GGCAGAGGUCAACACAGCGCGGCAAAGUGGCUGUGGCUAGAAUGCC,0.07
